In patent publication US20090209520A1, “2 -OXYBENZAMIDE DERIVATIVES AS PARP INHIBITORS” (KUDOS PHARMACEUTICALS LIMITED, priority 2006, published 2009):

Target: Mammalian PARP, isolated from Hela cell nuclear extract (Homo sapiens, UniProt P09874)
Test: PARP inhibition assay (FlashPlate, 3H-NAD scintillation counting)
Assay type: biochemical
Conditions: NAD 5 μM, 30° C., 45 minutes, read-out: IC50 (concentration at which 50% of the enzyme activity is inhibited)

**Q.** `CC(Oc1ccccc1)C(=O)N1CCN(C(=O)c2ccc(CCOc3ccccc3C(N)=O)cc2F)CC1` (stereo not shown) [Compound 11, 2-(2-{3-Fluoro-4-[4-(2-phenoxy-propionyl)-piperazine-1 carbonyl]-phenyl}-ethoxy)-benzamide] was tested. Which IC50 did it give?
**A.** < 2000 nM
